PubChem BioAssay (Tox21)
“And” between values parts separate entries of the source, which are not always exact repeats. Equal entries are not always repeated. Inconclusive results, whose numbers are uncertain, are shown with a selection of clear calls. For part of these data: Potencies beside an inconclusive call are fits to weak or partial responses and may not hold up. The source made the active and inactive calls. Unless noted, calls follow the shape of the full dose curve.

Legend:
[1] = biological target: Peroxisome proliferator-activated receptor gamma (Homo sapiens) (UniProt P37231); assay: qHTS assay to identify small molecule agonists of the peroxisome proliferator-activated receptor gamma (PPARg) signaling pathway (AID 743094; active = well fitted activation curve with a large enough effect in the signal ratio in the repeat runs, not every such curve was filed as active; inconclusive = weak or mixed curves, or effect the other way; inactive = no such curve, though single readings can be large or run the other way; the % refers to the signal ratio; also: potency is read from the fitted curve at half-maximal effect; as to activation: % is scaled to controls: 0 for no effect and ±100 for the full control effect); conditions: HEK293H PPARg-UAS-bla, beta-lactamase FRET ratio, 17 h; activation: at 57 µM (top of the series) unless noted
Summary of the method: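 Stably transfected HEK293H cells (GeneBLAzer PPARg UAS-bla) were incubated with test substances for 17 h at 37C after a 5 h pre-incubation; beta-lactamase activity was then detected by FRET substrate fluorescence.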

[2] = biological target: Peroxisome proliferator-activated receptor gamma (Homo sapiens) (UniProt P37231); assay: qHTS assay to identify small molecule antagonists of the peroxisome proliferator-activated receptor gamma (PPARg) signaling pathway (AID 743191); conditions: HEK293H PPARg-UAS-bla, beta-lactamase ratio, antagonist, 17 h; ratio activity, negative = inhibition: at 62.6 µM (top of the series) unless noted; also: nearly all actives have a fitted effect of over 30% in size; also: potency is read from the fitted curve at half-maximal effect; as to ratio activity, negative = inhibition: % is scaled to controls: 0 for no effect and ±100 for the full control effect
Summary of the method: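 Beta-lactamase reporter under UAS control in HEK293H PPARg-bla cells; compound treatment 17 h at 37C. Read-out: fluorescence intensity after 1 h room-temperature incubation with LiveBLAzer B/G FRET substrate.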

[3] = biological target: Peroxisome proliferator-activated receptor delta (Homo sapiens) (UniProt Q03181); assay: qHTS assay to identify small molecule antagonists of the peroxisome proliferator-activated receptor delta (PPARd) signaling pathway (AID 743215; active = well fitted inhibition curve with a large enough effect in the signal ratio in the repeat runs, not every such curve was filed as active; inconclusive = weak or mixed curves, or effect the other way; inactive = no such curve, though single readings can be large or run the other way; the % refers to the signal ratio;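 also: cells stimulated with agonist L165041 at 300 nM final during compound exposure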; also: potency is read from the fitted curve at half-maximal effect); conditions: HEK293H PPARd-UAS-bla, beta-lactamase FRET ratio, antagonist, 17 h; ratio activity, negative = inhibition: at 62 µM (top of the series) unless noted
Summary of the method: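 Antagonist-mode beta-lactamase reporter screen: HEK293H cells with UAS-bla under PPARd control, stimulated by 300 nM L165041 (final) alongside test compound for 17 h at 37 C, then FRET fluorescence after 2 h substrate incubation.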

[4] = biological target: Bile acid receptor (Homo sapiens) (UniProt Q96RI1); assay: qHTS assay to identify small molecule antagonists of the farnesoid-X-receptor (FXR) signaling pathway (AID 743217; active = well fitted inhibition curve with a large enough effect in the signal ratio in the repeat runs, not every such curve was filed as active; inconclusive = weak or mixed curves, or effect the other way; inactive = no such curve, though single readings can be large or run the other way; the % refers to the signal ratio; also: potency is read from the fitted curve at half-maximal effect; as to activity change, negative = inhibition: % is scaled to controls: 0 for no effect and ±100 for the full control effect); conditions: HEK293T FXR-UAS-bla, beta-lactamase ratio, CDCA-stimulated, 16 h; activity change, negative = inhibition: at 62.6 µM (top of the series) unless noted
Summary of the method: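 Beta-lactamase reporter under UAS control in HEK 293T cells; compound exposure 16 h at 37 °C in the presence of chenodeoxycholic acid (50 uM final); signal from B/G FRET substrate after 2 h at room temperature.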

[5] = qHTS assay to identify small molecule agonists of the farnesoid-X-receptor (FXR) signaling pathway - cell viability counter screen (AID 743218; active = well fitted curve in the direction sought with a large enough effect in the repeat runs; inconclusive = weak or mixed curves; inactive = no such curve, though single readings can be large; an effect the other way counts as inactive or inconclusive; also: nearly all actives have a fitted effect of over 45% in size; also: potency is read from the fitted curve at half-maximal effect); conditions: FXR-bla HEK293T viability, CellTiter-Glo luminescence, 16 h; viability change, negative = cytotoxic: at 62.6 µM (top of the series) unless noted
Summary of the method: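 In GeneBLAzer FXR-UAS-bla HEK 293T cells, compounds act for 16 h at 37 C. Cell viability is then scored in the reporter wells by CellTiter-Glo, 30 min at RT, luminescence.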

[6] = biological target: Peroxisome proliferator-activated receptor delta (Homo sapiens) (UniProt Q03181); assay: qHTS assay to identify small molecule agonists of the peroxisome proliferator-activated receptor delta (PPARd) signaling pathway (AID 743212); conditions: HEK293H PPARd-UAS-bla, beta-lactamase FRET ratio, 17 h; activation: at 62.6 µM (top of the series) unless noted; also: potency is read from the fitted curve at half-maximal effect
Summary of the method: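 HEK293H UAS-bla reporter cells, human PPARd system; compounds delivered in DMSO after 5 h plating, then at 37 C. Beta-lactamase FRET read, 2 h RT substrate step.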

[7] = qHTS assay to identify small molecule antagonists of the peroxisome proliferator-activated receptor delta (PPARd) signaling pathway - cell viability counter screen (AID 743213; active = well fitted curve in the direction sought with a large enough effect in the repeat runs; inconclusive = weak or mixed curves; inactive = no such curve, though single readings can be large; an effect the other way counts as inactive or inconclusive; also: nearly all actives have a fitted effect of over 50% in size; also: potency is read from the fitted curve at half-maximal effect); conditions: PPARd-bla HEK293H viability, CellTiter-Glo luminescence, 17 h; viability change, negative = cytotoxic: at 62 µM (top of the series) unless noted
Summary of the method: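 HEK293H PPARd UAS-bla cells, 5 h pre-incubation, compound + L165041 300 nM final, 17 h 37 C; B/G FRET substrate 2 h RT; then CellTiter-Glo 30 min RT, luminescence.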

[8] = biological target: Vitamin D3 receptor (Homo sapiens) (UniProt P11473); assay: qHTS assay to identify small molecule agonists of the vitamin D receptor (VDR) signaling pathway (AID 743222); conditions: HEK293T VDR-UAS-bla, beta-lactamase FRET ratio, 16 h; activation: at 63.5 µM (top of the series) unless noted; also: potency is read from the fitted curve at half-maximal effect
Summary of the method: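 Agonist activity measured in VDR-bla reporter cells. Exposure 16 h, 37C, 5% CO2; detection by B/G FRET substrate, 2 h RT.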

[9] = biological target: Vitamin D3 receptor (Homo sapiens) (UniProt P11473); assay: qHTS assay to identify small molecule antagonists of the vitamin D receptor (VDR) signaling pathway (AID 743223; active = well fitted inhibition curve with a large enough effect in the signal ratio in the repeat runs, not every such curve was filed as active; inconclusive = weak or mixed curves, or effect the other way; inactive = no such curve, though single readings can be large or run the other way; the % refers to the signal ratio; also: % is scaled to controls: 0 for no effect and ±100 for the full control effect); conditions: VDR-UAS-bla HEK293T, beta-lactamase FRET ratio, 16 h; activity change, negative = inhibition: at 61 µM (top of the series) unless noted
Summary of the method: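 Cells carrying a VDR-driven beta-lactamase reporter (VDR-bla) were co-treated with compound and 3 nM final 1alpha,25-dihydroxyvitamin D3 for 16 h at 37C; reporter activity was measured as FRET substrate fluorescence after 2 h at room temperature.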

[10] = qHTS assay to identify small molecule agonists of the vitamin D receptor (VDR) signaling pathway - cell viability counter screen (AID 743224; active = well fitted curve in the direction sought with a large enough effect in the repeat runs; inconclusive = weak or mixed curves; inactive = no such curve, though single readings can be large; an effect the other way counts as inactive or inconclusive; also: nearly all actives have a fitted effect of over 50% in size; also: potency is read from the fitted curve at half-maximal effect); conditions: VDR-bla HEK293T viability, CellTiter-Glo luminescence, 16 h; activity change, negative = cytotoxicity: at 62.6 µM (top of the series)
Summary of the method: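 VDR-bla cell line, quantitative HTS format; 16 h compound incubation (37C, 5% CO2); ATP-based CellTiter-Glo luminescence measured in the reporter assay wells.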

[11] = qHTS assay to identify small molecule antagonists of the peroxisome proliferator-activated receptor gamma (PPARg) signaling pathway - cell viability counter screen (AID 743194; active = well fitted curve in the direction sought with a large enough effect in the repeat runs; inconclusive = weak or mixed curves; inactive = no such curve, though single readings can be large; an effect the other way counts as inactive or inconclusive; also: potency is read from the fitted curve at half-maximal effect; nearly all actives have a fitted effect of over 55% in size); conditions: PPARg-bla HEK293H viability, CellTiter-Glo luminescence, 17 h, co-treated with 50 nM rosiglitazone; activity change, negative = cytotoxicity: at 62.6 µM (top of the series) unless noted
Summary of the method: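 Viability was measured as CellTiter-Glo luminescence in GeneBLAzer PPARg UAS-bla HEK293H cells. These cells had been exposed 17 h at 37 C to compounds together with rosiglitazone at 50 nM final, with the beta-lactamase readout taken in the same wells.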

[12] = qHTS assay for small molecule agonists of the antioxidant response element (ARE) signaling pathway (AID 743202; active = well fitted activation curve with a large enough effect in the signal ratio in the repeat runs, not every such curve was filed as active; inconclusive = weak or mixed curves, or effect the other way; inactive = no such curve, though single readings can be large or run the other way; the % refers to the signal ratio; also: potency is read from the fitted curve at half-maximal effect); conditions: HepG2 ARE-bla reporter, beta-lactamase FRET, 16 h; activation: at 73.3 µM (top of the series) unless noted
Summary of the method: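 An ARE-responsive beta-lactamase gene stably integrated in HepG2 cells serves as reporter. After 5 h plating and 16 h compound incubation at 37 C, fluorescence of the B/G FRET substrate was measured.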

[13] = biological target: Bile acid receptor (Homo sapiens) (UniProt Q96RI1); assay: qHTS assay to identify small molecule agonists of the farnesoid-X-receptor (FXR) signaling pathway (AID 743220; active = well fitted activation curve with a large enough effect in the signal ratio in the repeat runs, not every such curve was filed as active; inconclusive = weak or mixed curves, or effect the other way; the % refers to the signal ratio; also: potency is read from the fitted curve at half-maximal effect); conditions: HEK293T FXR-UAS-bla, beta-lactamase FRET ratio, 16 h; activation: at 62.6 µM (top of the series) unless noted
Summary of the method: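 Beta-lactamase reporter under UAS control in GeneBLAzer FXR HEK 293T cells (5000/well) measured with LiveBLAzer FRET substrate after 2 h at room temperature. Compound exposure lasted 16 h at 37C.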

[14] = qHTS assay for small molecule activators of the heat shock response signaling pathway - cell viability counter screen (AID 743209; active = well fitted curve in the direction sought with a large enough effect in the repeat runs; inconclusive = weak or mixed curves; inactive = no such curve, though single readings can be large; an effect the other way counts as inactive or inconclusive; also: potency is read from the fitted curve at half-maximal effect; nearly all actives have a fitted effect of over 50% in size); conditions: HSE-bla HeLa viability, CellTiter-Glo luminescence, 5 h; activity change, negative = cytotoxicity: at 62.6 µM (top of the series) unless noted
Summary of the method: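 Quantitative HTS format, Tox21 10K library. HeLa cells carrying an HSE-driven beta-lactamase reporter were treated 5 h at 37 C, then assessed for viability by CellTiter-Glo luminescence.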

[15] = qHTS assay to identify small molecule agonists of the peroxisome proliferator-activated receptor delta (PPARd) signaling pathway - cell viability counter screen (AID 743211; active = well fitted curve in the direction sought with a large enough effect in the repeat runs; inconclusive = weak or mixed curves; inactive = no such curve, though single readings can be large; an effect the other way counts as inactive or inconclusive; also: potency is read from the fitted curve at half-maximal effect; nearly all actives have a fitted effect of over 55% in size); conditions: PPARd-bla HEK293H viability, CellTiter-Glo luminescence, 17 h; activity change, negative = cytotoxicity: at 62.6 µM (top of the series) unless noted
Summary of the method: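 Counter screen for cytotoxicity run in parallel with the PPARd reporter screen. Beta-lactamase reporter HEK293H cells exposed to compounds 17 h; ATP-based CellTiter-Glo luminescence quantified viability.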

[16] = qHTS assay to identify small molecule antagonists of the farnesoid-X-receptor (FXR) signaling pathway - cell viability counter screen (AID 743221; active = well fitted cell-killing curve with a large enough effect in the repeat runs, not every such curve was filed as active; inconclusive = weak or mixed curves, or effect the other way; inactive = no such curve, though single readings can be large or run the other way; also: nearly all actives have a fitted effect of over 50% in size; also: potency is read from the fitted curve at half-maximal effect); conditions: FXR-bla HEK293T viability, CellTiter-Glo luminescence, 16 h; activity change, negative = cytotoxicity: at 62.6 µM (top of the series) unless noted
Summary of the method: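 Multiplexed counter screen: viability of FXR-bla HEK 293T cells under agonist stimulation by chenodeoxycholic acid (50 uM, final) and test compound for 16 h at 37 C, measured by CellTiter-Glo luminescence in the reporter wells.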

[17] = qHTS assay for small molecule activators of the heat shock response signaling pathway (AID 743210; active = well fitted activation curve with a large enough effect in the signal ratio in the repeat runs, with a control signal flat, not every such curve was filed as active; inconclusive = weak or mixed curves; the % refers to the signal ratio; also: potency is read from the fitted curve at half-maximal effect); conditions: HeLa HSE-bla reporter, beta-lactamase ratio, 5 h; activation: at 62.6 µM (top of the series) unless noted
Summary of the method: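 In HSE-bla HeLa cells, 5 h compound incubation (37 C) precedes addition of LiveBLAzer B/G substrate; after 2.5 h at room temperature, fluorescence intensity indicates reporter induction.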

[18] = qHTS assay for small molecule agonists of the antioxidant response element (ARE) signaling pathway - cell viability counter screen (AID 743203); conditions: ARE-bla HepG2 viability, CellTiter-Glo luminescence, 16 h; viability change, negative = cytotoxic: at 73.3 µM (top of the series); also: potency is read from the fitted curve at half-maximal effect; nearly all actives have a fitted effect of over 55% in size
Summary of the method: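 Cells (ARE-bla HepG2, 2,000/well) receive DMSO-dissolved compounds after a 5 hrs rest. Plates incubate 16 hrs at 37C/5% CO2. CellTiter-Glo luminescence is then recorded after 30 min at room temperature.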
Tags tell the direction and shape of the fitted curve or compound fluorescence and quenching.

Sequence of UniProt P11473 (P11473 whole entry, looked up): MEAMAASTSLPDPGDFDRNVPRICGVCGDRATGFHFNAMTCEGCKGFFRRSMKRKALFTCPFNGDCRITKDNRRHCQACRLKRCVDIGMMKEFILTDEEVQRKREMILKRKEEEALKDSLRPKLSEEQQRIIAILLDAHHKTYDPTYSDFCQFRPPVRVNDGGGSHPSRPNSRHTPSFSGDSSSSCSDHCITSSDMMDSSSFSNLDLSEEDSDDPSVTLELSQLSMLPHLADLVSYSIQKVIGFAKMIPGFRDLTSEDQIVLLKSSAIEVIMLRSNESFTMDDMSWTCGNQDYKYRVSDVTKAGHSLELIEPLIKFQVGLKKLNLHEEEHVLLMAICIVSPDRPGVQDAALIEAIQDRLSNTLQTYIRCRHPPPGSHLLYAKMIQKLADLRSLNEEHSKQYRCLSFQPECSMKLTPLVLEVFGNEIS
Sequence of UniProt Q96RI1 (Q96RI1 whole entry, looked up): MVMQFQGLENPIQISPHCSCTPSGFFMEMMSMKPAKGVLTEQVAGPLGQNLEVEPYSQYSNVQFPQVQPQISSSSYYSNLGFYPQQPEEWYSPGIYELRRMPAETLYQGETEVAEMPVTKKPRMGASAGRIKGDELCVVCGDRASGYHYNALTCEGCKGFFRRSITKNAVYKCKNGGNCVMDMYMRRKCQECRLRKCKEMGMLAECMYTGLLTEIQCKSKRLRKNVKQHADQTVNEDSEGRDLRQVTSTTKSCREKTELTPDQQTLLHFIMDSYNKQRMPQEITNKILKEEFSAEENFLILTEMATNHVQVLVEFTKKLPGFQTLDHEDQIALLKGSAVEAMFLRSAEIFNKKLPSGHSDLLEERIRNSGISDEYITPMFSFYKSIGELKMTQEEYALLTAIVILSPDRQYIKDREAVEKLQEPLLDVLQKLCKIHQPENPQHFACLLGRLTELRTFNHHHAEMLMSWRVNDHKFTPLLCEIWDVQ
Sequence of UniProt P37231 (P37231 whole entry, looked up): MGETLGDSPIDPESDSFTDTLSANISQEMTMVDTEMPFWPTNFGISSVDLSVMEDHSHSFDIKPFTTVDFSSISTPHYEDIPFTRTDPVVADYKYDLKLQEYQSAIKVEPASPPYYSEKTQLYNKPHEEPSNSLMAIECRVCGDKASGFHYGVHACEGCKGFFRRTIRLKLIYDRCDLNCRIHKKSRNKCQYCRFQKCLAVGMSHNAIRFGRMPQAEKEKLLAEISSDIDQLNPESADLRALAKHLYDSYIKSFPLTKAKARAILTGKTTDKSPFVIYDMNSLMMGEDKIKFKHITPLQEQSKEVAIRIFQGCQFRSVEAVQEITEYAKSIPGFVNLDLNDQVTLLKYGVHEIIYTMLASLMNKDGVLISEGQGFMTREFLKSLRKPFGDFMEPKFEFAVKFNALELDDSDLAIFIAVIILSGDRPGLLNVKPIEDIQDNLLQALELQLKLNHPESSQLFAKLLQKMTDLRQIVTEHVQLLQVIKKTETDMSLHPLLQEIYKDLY
Sequence of UniProt Q03181 (Q03181 whole entry, looked up): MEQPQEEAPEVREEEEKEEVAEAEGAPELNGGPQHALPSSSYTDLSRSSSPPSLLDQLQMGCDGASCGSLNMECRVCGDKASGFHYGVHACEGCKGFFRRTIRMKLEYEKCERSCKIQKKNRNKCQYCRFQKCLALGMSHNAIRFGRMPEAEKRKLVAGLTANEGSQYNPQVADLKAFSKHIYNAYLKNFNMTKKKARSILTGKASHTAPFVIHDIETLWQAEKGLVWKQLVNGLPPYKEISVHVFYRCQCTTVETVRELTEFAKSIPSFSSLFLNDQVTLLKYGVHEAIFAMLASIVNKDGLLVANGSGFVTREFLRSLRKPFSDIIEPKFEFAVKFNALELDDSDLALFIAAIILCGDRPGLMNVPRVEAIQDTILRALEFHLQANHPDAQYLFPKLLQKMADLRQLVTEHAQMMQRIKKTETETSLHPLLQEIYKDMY

## Cc1cc(C)nc(NS(=O)(=O)c2ccc(N)cc2)n1
[1]
  activation: inconclusive: -11.8% [at 78.9 µM]
[2]
  ratio activity, negative = inhibition: inconclusive: -1.86%
[3]
  Potency: inconclusive: 0.335 µM [fluorescent, partial curve]
[4]
  Potency: inactive
[5]
  Potency: inconclusive: 0.0018 µM [rising, full curve, poor fit]

## Cc1c(OCC(F)(F)F)ccnc1CS(=O)c1nc2ccccc2[nH]1 (stereo unspecified)
[1]
  activation: inconclusive: 9.72%
[2]
  Potency: inconclusive: 54.9 µM and inactive
[5]
  Potency: inconclusive: 15.5 µM [rising, partial curve, poor fit]

## Clc1nc2ccccc2nc1Cl
[1]
  Potency: inconclusive: 24.8 µM [activator]
[2]
  Potency: inconclusive: 44.2 µM [activator, partial curve, poor fit]
[6]
  activation: inconclusive: 1.23% [at 81.1 µM]
[7]
  Potency: inactive
[8]
  Potency: inactive

## CN1CCN(c2cc3c(cc2F)c(=O)c(C(=O)O)cn3-c2ccc(F)cc2)CC1
[1]
  activation: inconclusive: 5.61%
[2]
  ratio activity, negative = inhibition: inconclusive: 14.9%
[6]
  Potency: inconclusive: 11.9 µM [rising, partial curve, poor fit]
[3]
  ratio activity, negative = inhibition: inconclusive: 6.44%
[9]
  activity change, negative = inhibition: inconclusive: 23%
[10]
  Potency: inactive

## CN(C)CCCNCCCN(C)C
[1]
  Potency: inactive
[11]
  Potency: inconclusive: 0.219 µM [rising, full curve, poor fit]
[12]
  Potency: inactive

## Oc1ccc(-c2ccc(O)cc2)cc1
[1]
  activation: inconclusive: -11.9% [at 78.9 µM]
[2]
  Potency: inconclusive: 12.4 µM [inhibitor, full curve, poor fit]
[12]
  Potency: inconclusive: 1.38 µM [falling, partial curve, poor fit]
[4]
  activity change, negative = inhibition: inconclusive: -1.39% [at 81.1 µM]
[5]
  Potency: inconclusive: 0.311 µM [rising, partial curve, poor fit]
[13]
  Potency: inconclusive: 43.9 µM [activator, partial curve, poor fit]

## O=C(OCc1ccccc1)c1ccc(O)cc1
[1]
  Potency: inactive
[2]
  Potency: active: 43.6 µM and inconclusive: 23.7 µM [inhibitor, partial curve]
[14]
  Potency: inconclusive: 61.6 µM [cytotoxic, single point]
[15]
  Potency: inconclusive: 61.6 µM [cytotoxic, single point]
[7]
  Potency: inconclusive: 61.6 µM [cytotoxic, single point]
[4]
  Potency: inconclusive: 61.6 µM [rising, partial curve, poor fit]
[5]
  Potency: inactive and inconclusive: 13.3 µM [cytotoxic, single point]
[16]
  Potency: inactive

## CCCCCCOC(=O)c1ccccc1O
[1]
  Potency: inactive
[2]
  ratio activity, negative = inhibition: inconclusive: 3.44%
[16]
  Potency: inconclusive: 49 µM [falling, partial curve, poor fit]

## Cc1cc(O)ccc1O
[1]
  Potency: inconclusive: 62.3 µM [activator, single point]
[2]
  ratio activity, negative = inhibition: inconclusive: 20.5% [at 81.1 µM]
[12]
  Potency: inconclusive: 2.46 µM [rising, full curve]
[5]
  Potency: inconclusive: 0.0016 µM [rising, full curve, poor fit]

## O=C(CCCN1CC=C(n2c(=O)[nH]c3ccccc32)CC1)c1ccc(F)cc1
[1]
  Potency: inactive
[2]
  Potency: inactive
[15]
  Potency: inconclusive: 23.7 µM [cytotoxic, partial curve, poor fit]
[7]
  Potency: inconclusive: 0.106 µM [cytotoxic, full curve, poor fit]

## Cc1cc(C)c(NC(=O)CN(CC(=O)O)CC(=O)O)c(C)c1Br
[1]
  Potency: inactive
[2]
  Potency: inactive
[12]
  Potency: inactive
[9]
  activity change, negative = inhibition: inconclusive: 6.09%

## C=C(C)[C@@H]1CCC2=CCC[C@@H](C)[C@]2(C)C1
[1]
  Potency: inactive
[11]
  Potency: inconclusive: 0.0155 µM [cytotoxic, full curve, poor fit]
[12]
  Potency: inconclusive: 54.5 µM [rising, partial curve, poor fit]
[14]
  Potency: inconclusive: 38.9 µM [cytotoxic, partial curve]
[17]
  Potency: inconclusive: 30.9 µM [falling, partial curve]
[15]
  Potency: inconclusive: 54.9 µM [cytotoxic, partial curve, poor fit]
[5]
  Potency: inconclusive: 0.219 µM [rising, partial curve, poor fit]
[9]
  activity change, negative = inhibition: inconclusive: 10.6%
[10]
  Potency: inconclusive: 54.9 µM [cytotoxic, single point]

## c1ccc2cc3c(ccc4ccccc43)cc2c1
[1]
  Potency: inactive
[2]
  Potency: inconclusive: 61.6 µM [fluorescent, single point]
[18]
  Potency: inconclusive: 7.72 µM [rising, partial curve, poor fit]
[17]
  Potency: inconclusive: 61.9 µM [activator]
[13]
  activation: inconclusive: 5.31% [at 81.1 µM]
[8]
  Potency: inactive and inconclusive: 49 µM [fluorescent, single point]
